Laboratory results: paper PMC5933922
These are yes or no findings as the source states them, for the method shown. Binding seen in cells or lysates may run through a third protein. Some binding calls cover weakened binding; strength is not graded here.

By UniProt entry, the sequences of proteins in these tests, tags left out. Where a name states a change or a piece, a line headed by the entry shows the natural chain unless it says otherwise. Residues count along the entry.
UniProt O75970: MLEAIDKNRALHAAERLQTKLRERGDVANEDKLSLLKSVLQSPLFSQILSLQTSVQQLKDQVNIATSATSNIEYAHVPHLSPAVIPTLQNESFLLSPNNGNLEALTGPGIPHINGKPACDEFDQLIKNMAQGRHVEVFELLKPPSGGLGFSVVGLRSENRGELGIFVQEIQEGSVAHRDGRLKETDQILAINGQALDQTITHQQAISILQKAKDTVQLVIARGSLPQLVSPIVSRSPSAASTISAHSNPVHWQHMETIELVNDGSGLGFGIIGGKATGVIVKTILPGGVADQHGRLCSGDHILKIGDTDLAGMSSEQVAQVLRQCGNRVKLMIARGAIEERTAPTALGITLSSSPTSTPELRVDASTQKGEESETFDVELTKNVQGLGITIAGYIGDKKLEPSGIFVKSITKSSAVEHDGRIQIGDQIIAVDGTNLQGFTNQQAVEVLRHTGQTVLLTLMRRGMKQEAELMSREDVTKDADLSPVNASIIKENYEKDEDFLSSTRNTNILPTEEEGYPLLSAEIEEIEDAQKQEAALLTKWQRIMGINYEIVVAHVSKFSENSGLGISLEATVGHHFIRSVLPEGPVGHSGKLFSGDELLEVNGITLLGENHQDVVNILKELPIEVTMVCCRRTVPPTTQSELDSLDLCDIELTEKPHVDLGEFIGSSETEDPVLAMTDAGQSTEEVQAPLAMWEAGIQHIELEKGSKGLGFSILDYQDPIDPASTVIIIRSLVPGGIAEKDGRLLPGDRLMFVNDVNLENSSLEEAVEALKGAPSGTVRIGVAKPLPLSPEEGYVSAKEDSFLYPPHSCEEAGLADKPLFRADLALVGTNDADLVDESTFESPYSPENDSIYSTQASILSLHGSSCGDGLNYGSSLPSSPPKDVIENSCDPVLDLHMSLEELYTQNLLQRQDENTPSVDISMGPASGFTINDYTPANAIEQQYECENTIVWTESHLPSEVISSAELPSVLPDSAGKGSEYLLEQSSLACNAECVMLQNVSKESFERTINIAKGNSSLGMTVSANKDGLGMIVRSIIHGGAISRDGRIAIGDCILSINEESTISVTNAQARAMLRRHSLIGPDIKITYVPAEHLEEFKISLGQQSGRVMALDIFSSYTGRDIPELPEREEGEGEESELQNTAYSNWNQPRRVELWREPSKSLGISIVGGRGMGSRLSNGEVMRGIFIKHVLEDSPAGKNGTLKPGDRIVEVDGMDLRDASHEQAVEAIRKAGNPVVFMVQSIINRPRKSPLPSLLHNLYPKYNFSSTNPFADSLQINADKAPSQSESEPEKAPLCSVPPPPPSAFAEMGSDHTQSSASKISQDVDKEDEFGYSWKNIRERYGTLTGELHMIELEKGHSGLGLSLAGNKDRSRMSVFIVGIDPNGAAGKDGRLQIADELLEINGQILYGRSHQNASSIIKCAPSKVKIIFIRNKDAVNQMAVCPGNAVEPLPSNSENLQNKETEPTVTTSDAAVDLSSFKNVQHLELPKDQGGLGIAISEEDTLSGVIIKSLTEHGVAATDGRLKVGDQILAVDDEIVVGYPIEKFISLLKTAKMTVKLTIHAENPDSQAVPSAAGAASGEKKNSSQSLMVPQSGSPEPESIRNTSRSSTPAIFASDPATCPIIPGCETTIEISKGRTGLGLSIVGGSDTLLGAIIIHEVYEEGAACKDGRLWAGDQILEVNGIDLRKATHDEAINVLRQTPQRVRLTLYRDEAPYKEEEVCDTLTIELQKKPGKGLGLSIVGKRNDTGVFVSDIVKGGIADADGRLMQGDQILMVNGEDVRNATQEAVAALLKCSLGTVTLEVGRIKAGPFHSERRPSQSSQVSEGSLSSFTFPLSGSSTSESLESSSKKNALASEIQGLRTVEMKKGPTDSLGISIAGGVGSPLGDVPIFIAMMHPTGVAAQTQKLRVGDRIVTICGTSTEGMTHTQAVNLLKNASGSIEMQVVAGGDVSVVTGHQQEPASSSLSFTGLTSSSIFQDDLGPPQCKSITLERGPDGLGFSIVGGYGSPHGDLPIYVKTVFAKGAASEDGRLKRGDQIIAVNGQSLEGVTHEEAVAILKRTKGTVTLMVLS
UniProt Q9JI71, residues 27-686: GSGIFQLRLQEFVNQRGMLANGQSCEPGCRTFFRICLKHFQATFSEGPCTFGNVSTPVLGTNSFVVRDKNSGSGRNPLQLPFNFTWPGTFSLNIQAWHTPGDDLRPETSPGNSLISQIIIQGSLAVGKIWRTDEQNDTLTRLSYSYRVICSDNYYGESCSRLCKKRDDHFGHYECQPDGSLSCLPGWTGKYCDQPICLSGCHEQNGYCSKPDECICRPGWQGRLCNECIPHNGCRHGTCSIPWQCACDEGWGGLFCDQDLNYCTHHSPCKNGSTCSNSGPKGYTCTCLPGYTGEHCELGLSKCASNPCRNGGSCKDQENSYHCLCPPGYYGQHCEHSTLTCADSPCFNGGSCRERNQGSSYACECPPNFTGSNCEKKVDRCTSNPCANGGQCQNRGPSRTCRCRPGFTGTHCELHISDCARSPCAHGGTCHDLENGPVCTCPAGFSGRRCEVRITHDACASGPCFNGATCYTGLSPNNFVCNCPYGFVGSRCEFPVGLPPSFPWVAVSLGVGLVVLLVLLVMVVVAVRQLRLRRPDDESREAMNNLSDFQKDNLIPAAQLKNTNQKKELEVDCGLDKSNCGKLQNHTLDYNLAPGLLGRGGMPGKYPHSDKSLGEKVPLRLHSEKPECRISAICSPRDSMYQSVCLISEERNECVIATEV
UniProt Q9NR61: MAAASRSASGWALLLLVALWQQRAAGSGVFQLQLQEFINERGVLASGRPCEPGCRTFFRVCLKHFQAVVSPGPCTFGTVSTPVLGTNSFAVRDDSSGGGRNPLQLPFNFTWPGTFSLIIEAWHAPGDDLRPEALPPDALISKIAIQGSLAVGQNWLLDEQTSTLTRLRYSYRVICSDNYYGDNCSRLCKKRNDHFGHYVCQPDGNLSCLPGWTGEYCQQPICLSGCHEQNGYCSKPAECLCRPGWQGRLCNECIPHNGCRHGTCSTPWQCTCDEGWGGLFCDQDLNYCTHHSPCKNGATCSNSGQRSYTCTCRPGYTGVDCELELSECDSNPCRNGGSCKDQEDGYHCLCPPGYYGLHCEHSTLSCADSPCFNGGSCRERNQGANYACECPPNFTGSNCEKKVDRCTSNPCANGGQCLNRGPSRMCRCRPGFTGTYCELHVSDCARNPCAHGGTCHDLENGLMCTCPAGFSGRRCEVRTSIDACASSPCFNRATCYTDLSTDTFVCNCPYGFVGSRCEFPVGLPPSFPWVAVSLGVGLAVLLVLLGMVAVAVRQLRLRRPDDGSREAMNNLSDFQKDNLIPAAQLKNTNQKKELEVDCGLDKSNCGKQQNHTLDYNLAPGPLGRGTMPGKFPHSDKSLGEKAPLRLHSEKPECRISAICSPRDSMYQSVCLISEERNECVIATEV
UniProt O00548: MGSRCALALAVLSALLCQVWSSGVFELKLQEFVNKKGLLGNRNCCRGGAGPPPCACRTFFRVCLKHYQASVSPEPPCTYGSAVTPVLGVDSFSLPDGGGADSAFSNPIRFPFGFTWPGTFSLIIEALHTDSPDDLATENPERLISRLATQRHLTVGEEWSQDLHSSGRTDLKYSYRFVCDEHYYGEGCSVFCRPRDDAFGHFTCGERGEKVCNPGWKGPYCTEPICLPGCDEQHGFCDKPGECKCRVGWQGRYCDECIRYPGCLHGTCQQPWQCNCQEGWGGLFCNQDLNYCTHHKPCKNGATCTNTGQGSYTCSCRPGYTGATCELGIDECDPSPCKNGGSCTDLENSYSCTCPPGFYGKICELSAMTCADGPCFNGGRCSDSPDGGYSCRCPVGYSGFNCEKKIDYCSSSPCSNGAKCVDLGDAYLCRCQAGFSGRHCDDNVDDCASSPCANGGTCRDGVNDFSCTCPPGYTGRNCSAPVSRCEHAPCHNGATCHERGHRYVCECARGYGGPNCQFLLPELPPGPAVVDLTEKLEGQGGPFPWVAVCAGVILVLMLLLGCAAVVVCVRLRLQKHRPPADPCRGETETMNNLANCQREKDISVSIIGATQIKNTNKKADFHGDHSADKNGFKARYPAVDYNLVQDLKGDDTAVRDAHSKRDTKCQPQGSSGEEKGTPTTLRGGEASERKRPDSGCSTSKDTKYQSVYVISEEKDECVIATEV
UniProt Q8VBX6: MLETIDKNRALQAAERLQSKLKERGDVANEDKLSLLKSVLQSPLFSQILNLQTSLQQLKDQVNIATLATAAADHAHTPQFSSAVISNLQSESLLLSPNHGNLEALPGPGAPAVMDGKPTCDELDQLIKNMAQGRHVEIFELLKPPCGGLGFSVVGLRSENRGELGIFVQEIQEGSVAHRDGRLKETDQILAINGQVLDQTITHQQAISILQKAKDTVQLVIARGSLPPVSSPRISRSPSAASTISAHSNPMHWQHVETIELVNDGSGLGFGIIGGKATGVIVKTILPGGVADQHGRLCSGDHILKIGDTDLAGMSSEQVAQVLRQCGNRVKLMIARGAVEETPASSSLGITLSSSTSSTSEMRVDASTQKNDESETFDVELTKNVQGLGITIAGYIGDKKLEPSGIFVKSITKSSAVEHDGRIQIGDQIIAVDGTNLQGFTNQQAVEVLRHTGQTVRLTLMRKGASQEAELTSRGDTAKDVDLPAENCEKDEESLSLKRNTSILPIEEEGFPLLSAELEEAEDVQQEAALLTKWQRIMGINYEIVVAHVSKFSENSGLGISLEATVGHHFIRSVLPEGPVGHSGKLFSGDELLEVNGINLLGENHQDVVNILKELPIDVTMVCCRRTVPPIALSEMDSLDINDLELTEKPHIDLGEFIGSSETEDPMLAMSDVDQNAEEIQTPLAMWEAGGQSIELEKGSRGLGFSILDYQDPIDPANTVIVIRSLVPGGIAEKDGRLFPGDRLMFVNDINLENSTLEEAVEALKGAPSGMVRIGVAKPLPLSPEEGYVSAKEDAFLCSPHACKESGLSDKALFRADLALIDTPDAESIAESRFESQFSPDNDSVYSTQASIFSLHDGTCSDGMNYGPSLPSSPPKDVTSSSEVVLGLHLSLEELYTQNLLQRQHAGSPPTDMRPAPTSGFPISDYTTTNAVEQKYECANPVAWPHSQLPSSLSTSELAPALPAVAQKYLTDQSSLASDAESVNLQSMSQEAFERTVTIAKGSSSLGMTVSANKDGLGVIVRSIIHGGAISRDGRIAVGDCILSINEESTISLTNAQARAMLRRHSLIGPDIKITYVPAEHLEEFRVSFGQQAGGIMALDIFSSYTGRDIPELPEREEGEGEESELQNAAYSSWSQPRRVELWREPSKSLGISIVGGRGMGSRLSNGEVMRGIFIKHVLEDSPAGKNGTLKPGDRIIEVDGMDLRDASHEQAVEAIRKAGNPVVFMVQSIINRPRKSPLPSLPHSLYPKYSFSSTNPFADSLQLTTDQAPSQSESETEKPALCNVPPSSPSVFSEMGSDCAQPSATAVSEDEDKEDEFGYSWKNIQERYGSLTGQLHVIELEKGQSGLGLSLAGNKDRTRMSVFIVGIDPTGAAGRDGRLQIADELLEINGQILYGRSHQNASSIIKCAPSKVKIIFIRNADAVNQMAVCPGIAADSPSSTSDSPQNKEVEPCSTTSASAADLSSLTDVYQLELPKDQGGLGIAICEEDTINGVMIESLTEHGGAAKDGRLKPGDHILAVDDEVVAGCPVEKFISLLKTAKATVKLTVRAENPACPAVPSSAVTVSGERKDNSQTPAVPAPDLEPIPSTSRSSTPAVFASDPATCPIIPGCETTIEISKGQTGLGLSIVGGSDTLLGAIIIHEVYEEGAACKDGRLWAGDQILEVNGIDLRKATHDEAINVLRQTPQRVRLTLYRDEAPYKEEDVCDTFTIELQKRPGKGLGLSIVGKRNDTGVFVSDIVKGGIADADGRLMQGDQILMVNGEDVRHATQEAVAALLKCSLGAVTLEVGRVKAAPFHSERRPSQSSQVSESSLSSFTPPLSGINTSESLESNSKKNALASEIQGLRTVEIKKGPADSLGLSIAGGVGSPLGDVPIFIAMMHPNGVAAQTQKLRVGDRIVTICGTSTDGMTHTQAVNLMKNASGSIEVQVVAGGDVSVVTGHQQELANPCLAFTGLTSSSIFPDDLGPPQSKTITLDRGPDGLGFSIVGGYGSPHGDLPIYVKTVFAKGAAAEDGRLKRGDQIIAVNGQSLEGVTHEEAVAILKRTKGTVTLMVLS

Columns and labels:
[1] = biological target: Citrine-MPDZ (multiple PDZ domain protein fused with an amino-terminal fluorescent Citrine) (UniProt O75970); assay: co-IP; HEK293T cells co-transfected with Citrine-MPDZ and tagged DLL1/DLL4 constructs; antibodies against Citrine precipitate Citrine-MPDZ; HA and FLAG detected by immunoblot; antibody overnight at 4°C, protein-G dynabeads
[2] = biological target: Dll1 (mouse kidney) (mouse (endogenous in kidney)) (UniProt Q61483); assay: co-IP; lysates of mouse kidneys; Dll1 or Dll4 precipitated with specific antibodies; Mpdz detected by immunoblot
[3] = biological target: Dll4 (mouse kidney) (mouse (endogenous in kidney)) (UniProt Q9JI71); assay: as above
[4] = biological target: Flag-tagged DLL4 (full-length) (UniProt Q9NR61); assay: co-IP; HEK293T control cells (sh-ctrl) and MPDZ-silenced HEK293T cells (sh-MPDZ) transfected with SYNJ2BP and HA-DLL1 or Flag-DLL4; DLL1 antibody or Flag antibody for precipitation; SYNJ2BP detected by Western blot
[5] = biological target: HA-tagged DLL1 (full-length) (UniProt O00548); assay: as above

In the case of “Flag-tagged DLL4 (full-length) (from UniProt Q9NR61 27-685)”, the binding [1] is reported as “binds”.

For “Flag-tagged DLL4ΔPDZ (DLL4 lacking the carboxyterminal PDZ-binding site, amino acids IATEV) (from UniProt Q9NR61 27-680) (domain or fragment)”, the binding [1] was “no binding”.

With “HA-tagged DLL1 (full-length) (from UniProt O00548 18-723)” the binding [1] was “binds”.

With “HA-tagged DLL1ΔPDZ (DLL1 lacking the carboxyterminal PDZ-binding site, amino acids IATEV) (from UniProt O00548 18-718) (domain or fragment)” the binding [1] was “no binding”.

“Mpdz (mouse kidney) (from UniProt Q8VBX6 1-2055)” was tested, and the binding [2] was “binds” and the binding [3] was “binds”.

B1: SYNJ2BP (protein, UniProt P57105 1-145)
chain: MNGRVDYLVTEEEINLTRGPSGLGFNIVGGTDQQYVSNDSGIYVSRIKENGAAALDGRLQEGDKILSVNGQDLKNLLHQDAVDLFRNAGYAVSLRVQHRLQVQNGPIGHRGEGDPSGIPIFMVLVPVFALTMVAAWAFMRYRQQL
B1 was tested, and the binding [4] was “binds” and the binding [5] was “binds”.
